In all, about 120,000 compounds went through this assay and about 5,300 (4.4%) were called active. Inconclusive means that the source gave no clear call. Such entries were picked first, then a sample of the others. Calls come from the whole dose curve; as a rule, active = well fitted inhibition curve with a large enough effect; inconclusive = small, poorly fitted or top-dose-only effect; inactive = no such curve, though single readings can be large or run the other way. A potency beside an inconclusive call is a rough fit, not a confirmed value.
Experiment: qHTS Primary assay for Inhibitors of Plasmodium falciparum Dd2 growth in vitro; note: nearly all actives have a fitted effect of over 65% in size;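 for activity, negative = inhibition: plate controls were DMSO vehicle for no effect and reference drug for full effect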
Conditions: P. falciparum Dd2 growth, SYBR Green, 72 h; activity, negative = inhibition: at 28.9 µM (top of the series) unless noted; series mostly up to 28.9 µM
In short: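 Readout: SYBR Green fluorescence, 485 nm excitation, 535 nm emission, after ~16 h lysis at 37C. Before that, Dd2-infected red cells (2.5% hematocrit) grew 72 h with compound, 29 uM top final concentration.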
Potency is the fitted concentration of half-maximal effect; tags give direction and shape of the fitted curve.

SMILES | Potency | activity, negative = inhibition | outcome
Cn1ccc(C(=O)N2CC(CNc3ccccc3)C3(C2)CN(c2ccccc2)C3)n1 (stereo not given) | inconclusive: 10 µM [inhibitor, partial curve, poor fit] |  | 
Cc1ccc(/C=C/c2onc(C)c2S(=O)(=O)N2CCC(C(=O)N3CCOc4ccccc43)CC2)cc1 | inconclusive: 7.94 µM [inhibitor, partial curve, poor fit] |  | 
NCc1ccc(-c2cc(C(F)(F)F)ccc2Cl)cc1 | inconclusive: 11.2 µM [inhibitor, single point] |  | 
C[C@H]1[C@@H]2[C@@H](O)C([C@H](C)C(=O)N(C)Cc3ccccc3)CC[C@@]2(C)CC[C@@H]1NC(=O)c1ccncc1 (stereo not given in full) | inconclusive: 1.58 µM [inhibitor, partial curve, poor fit] |  | 
O=C1CCN(Cc2ccc(F)cc2F)CCCC(c2nc(-c3cnccn3)no2)CCN1 (stereo not given) | inconclusive: 1.58 µM [inhibitor, full curve] |  | 
CN1CC(=O)N(c2cccnc2)Cc2c1ncnc2N1CCCCC1 | inconclusive: 6.31 µM [inhibitor, partial curve, poor fit] |  | 
O=C(c1cccc(Cl)c1)N1CCC2(C1)C(=O)N(CCc1ccccc1)c1ccccc12 (stereo not given) | inconclusive: 2.82 µM [inhibitor, full curve, poor fit] |  | 
Cc1ccc2c(ccn2CCNC(=O)C[C@H]2NC(=O)c3ccccc3NC2=O)c1 | inconclusive: 11.2 µM [inhibitor, single point] |  | 
CCOC(=O)c1cc(-c2ccccc2)n(CCCC(=O)Nc2cccc(Cl)c2C)c1C | inconclusive: 10 µM [inhibitor, single point] |  | 
COc1cc(NC(=O)Cn2c(C)cc3ccccc3c2=O)cc(OC)c1OC | inconclusive: 10 µM [inhibitor, single point] |  | 
COc1cc(OC)cc(C(=O)Nc2c(C(=O)Nc3ccc(F)cc3)oc3ccccc23)c1 | inconclusive: 12.6 µM [inhibitor, partial curve, poor fit] |  | 
O=C1CC2(CCN(Cc3cccnc3)CC2)Oc2cc(Cl)ccc21 | inconclusive: 7.08 µM [inhibitor, single point] |  | 
CC(C)(C)C(=O)Nc1c(C(=O)N2CCN(c3ccc(F)cc3)CC2)oc2ccccc12 | inconclusive: 17.8 µM [inhibitor, single point] |  | 
Cc1ccc(F)cc1NC(=O)c1cc(-c2ccc[nH]2)n[nH]1 |  | inactive: -13.9% | 
CCc1cccc(NC(=O)CSc2ncc3c(n2)-c2ccccc2N(Cc2ccccc2C)S3(=O)=O)c1 | inconclusive: 7.08 µM [inhibitor, partial curve, poor fit] |  | 
COc1ccc(C(=O)N2CC3CC(C2)[C@H]2CCCC(=O)N2C3)cn1 (stereo not given in full) |  | inactive: -7.6% | 
COc1ccc(-c2ccccc2NC(=O)C2CCCN(Cc3c(O)cccc3OC)C2)cc1 (stereo not given) | active: 1.78 µM |  | 
COc1ccccc1CNC(=O)c1cccc(Nc2nc3ccccc3n3nnnc23)c1 | inconclusive: 8.91 µM [inhibitor, partial curve, poor fit] |  | 
COc1ccc(C(=O)NCC(=O)N2CCCCCCNC(=O)CC2c2ccccc2)c(OC)c1 (stereo not given) | inconclusive: 3.55 µM [inhibitor, partial curve, poor fit] |  | 
COc1ccc(-c2ccc3c(c2)C(=O)N2CC[C@H](NC(=O)COCC(=O)O)[C@H]2C(=O)N3)c(OC)c1 |  |  | inactive
CN(CC1CCOC1)C(=O)Nc1ccc(Br)cc1 (stereo not given) | inconclusive: 0.447 µM [inhibitor, full curve, poor fit] |  | 
CC1CCN(CCNC(=O)c2ccc(Cn3c(SCc4ccccc4)nc4cccnc43)cc2)CC1 | active: 10 µM |  | 

SMILES | Potency | activity, negative = inhibition | outcome
Cn1nc(-c2nncn2CC2CC2)c2c1CCN(C(=O)Cc1c[nH]c3ccccc13)C2 | inconclusive: 7.08 µM [inhibitor, partial curve] |  | 
NC(=O)Cn1ccc2cc(OCC3CCN(c4cc(NC5CC5)ncn4)CC3)cnc21 | inconclusive: 12.6 µM [inhibitor, partial curve, poor fit] |  | 
CCN1c2cc(C(=O)NCc3cccs3)ccc2C(=O)N2CCCCC21 (stereo not given) |  | inactive: -12.7% | 
CCNC(=O)CC1COCCN1C(=O)c1csc(-c2cccs2)n1 (stereo not given) |  | inactive: 5.38% | 
COc1ccccc1C(=O)N1CC[C@H]2COC(=O)N2c2cc(C)ccc2C1 |  | inactive: 2.24% [at 44.1 µM] | 
CCOC(=O)c1cccc(NC(=O)O[C@@H]2CO[C@H]3[C@@H]2OC[C@@H]3NS(=O)(=O)c2cc(OC)ccc2OC)c1 | inconclusive: 11.2 µM [inhibitor, partial curve] |  | 
Cn1cc(-c2ccccc2Oc2ccccc2)c2nc(CN3CCOCC3)cn2c1=O | inconclusive: 0.447 µM [inhibitor, full curve, poor fit] |  | 
O=C(Cc1ccccc1)NCCC1CCN(C(=O)Nc2ccc(F)cc2F)CC1 | inconclusive: 2.24 µM [inhibitor, single point] |  | 
Cc1cccc(OCC(=O)NC2CCc3nn(CC4CC4)c(=O)n3CC2)c1 (stereo not given) |  | inactive: -16.4% | 
C[C@]1(CO)[C@H]2Cc3sc(NC(=O)c4c(F)cccc4F)nc3[C@@H](CC(=O)NCc3ccccc3)[C@]2(C)CC[C@H]1O | inconclusive: 7.94 µM [inhibitor, partial curve, poor fit] |  | 
COCCNC(=O)[C@@H]1Cc2cn(Cc3cccnc3)c3cccc(c23)[C@H](CC(C)C)N1 | active: 11.2 µM |  | 
COc1ccc(CN2CCN(c3nc4ccccc4o3)CC2CCO)cc1C (stereo not given) | inconclusive: 11.2 µM [inhibitor, single point] |  | 
COc1ccc(CN2C(=O)COC[C@H]2C(=O)NCCc2c[nH]c3ccccc23)c(OC)c1 |  |  | inactive
Cc1ccc(-n2ncc(C(=O)N3CCN(Cc4ccccc4)CC3)c2C2CCN(C(=O)OC(C)(C)C)CC2)c(C)c1 | active: 8.91 µM |  | 
CC(C)(C)OC(=O)N1CCC(c2c(C(=O)NCc3ccco3)cnn2-c2ccc(F)cc2)CC1 | active: 7.94 µM |  | 
NC1(Cc2cc(COc3ccccc3)on2)COC1 |  | inactive: -17.1% [at 44.1 µM] | 
CN1CC(=O)N(C2CCC2)Cc2c(NC3CCNCC3)ncnc21 |  | inconclusive: -197% [inhibitor] | 
CCOC(=O)c1nccn1Cc1nc(-c2ccccc2OCC)oc1C | inconclusive: 3.16 µM [inhibitor, single point] |  | 
O=C1CC2CCN([S+](=O)([O-])C3CCCC3)CC2CCN1 (stereo not given) |  | inactive: 29.1% | 
O=C1CC(c2ccccc2)N(Cc2ccncc2)CCCN(C(=O)NCc2ccc(F)cc2)CCN1 (stereo not given) | inconclusive: 3.98 µM [inhibitor, partial curve, poor fit] |  | 
COc1ccc(CNc2ncnc3c2c(-c2ccccc2)cn3-c2ccccc2)cc1 | inconclusive: 20 µM [inhibitor, single point] |  | 
Cc1ccc(S(=O)(=O)c2nc(-c3ccc(Cl)cc3)oc2N2CCCCCC2)cc1 | inconclusive: 10 µM [inhibitor, single point] |  | 

SMILES | Potency | activity, negative = inhibition | outcome
Cc1c(-c2cccc(NC(=O)C(C)(C)C)c2)nc2ncccn12 | inconclusive: 11.2 µM [inhibitor, single point] |  | 
CC(C)CN1CCN(c2ncncc2-c2nc(-c3ccccc3)no2)CC1 | inconclusive: 2.51 µM [inhibitor, single point] |  | 
O=C(NCc1ccccc1)C1CCCN(C2CCN(C(=O)c3ccoc3)CC2)C1 (stereo not given) | inconclusive: 2.24 µM [inhibitor, full curve, poor fit] |  | 
Cc1nnc(SCC(=O)NCc2ccccc2F)c2nn(-c3ccc(Cl)cc3)c(C)c12 | inconclusive: 10 µM [inhibitor, single point] |  | 
CN1C(=O)[C@@H]2C[C@@H](O)CN2C2(CN(Cc3ccc(F)cc3)C2)C1=O |  | inactive: 11.3% [at 44.1 µM] | 
CC1(C(=O)Nc2ccccc2)CCc2cnc(N3CCOCC3)nc21 (stereo not given) |  | inactive: 3.8% [at 44.1 µM] | 
Cc1cccc(N2C(=O)CCSC23C(=O)N(Cc2ccc(F)cc2)c2ccccc23)c1 (stereo not given) | inconclusive: 3.55 µM [inhibitor, single point] |  | 
O=C(C1CCCCC1)N1CCC(n2cc(-c3nc(-c4ccccc4)no3)nn2)CC1 | inconclusive: 1.26 µM [inhibitor, partial curve, poor fit] |  | 
COc1cccc(-c2noc(-c3ccc(NCCn4cccn4)nc3)n2)c1OC | active: 12.6 µM |  | 
CC(=O)c1cc(CN2CCCn3nc(CNC(=O)C4CCC4)cc3C2)cs1 |  | inactive: 3.18% | 
COCCc1noc([C@@H]2CC(F)(F)CN2C(=O)C2CC=CC2)n1 |  | inactive: -9.41% | 
COc1ccc(C(=O)N2CCCC(n3cc(-c4nc(-c5ccccc5)no4)nn3)C2)cc1OC (stereo not given) | inconclusive: 1 µM [inhibitor, single point] |  | 
Cc1noc([C@@H]2CN(Cc3ccncc3)C[C@H]2CO)n1 |  | inactive: 14.2% | 
COc1ccccc1-c1cc([C@H]2CN3CC[C@H]2C[C@@H]3CNC(=O)c2ccco2)nc(C)n1 | active: 10 µM |  | 
CCn1c2c(c(=O)n1Cc1ccccc1)CCN(C(=O)C1CCC(OC)CC1)C2 (stereo not given) |  | inactive: 13.1% [at 44.1 µM] | 
COc1cccc(-n2c(=O)c3sc4ccccc4c3n(CC(=O)Nc3cccc(Cl)c3)c2=O)c1 | inconclusive: 7.08 µM [inhibitor, partial curve, poor fit] |  | 
COc1ccccc1NC(=O)Cc1cccn1-c1ccc(Cl)cc1 | inconclusive: 17.8 µM [inhibitor, single point] |  | 
O=C(Cc1ccccc1F)Nc1ccc2c(N3CCCCC3)ncnc2c1 | active: 12.6 µM |  | 
Cc1c(C(=O)N(C)c2cccc(C(F)(F)F)c2)sc2nc3n(c(=O)c12)CCCCC3 | inconclusive: 10 µM [inhibitor, single point] |  | 
CCOc1ccccc1NC(=O)Cn1c(N2CCN(c3ccccc3)CC2)nc(C)cc1=O | active: 5.62 µM |  | 
CSc1ccc(-c2noc(-c3ncn4c3COC(c3ccccc3Cl)C4)n2)cc1 (stereo not given) | inconclusive: 10 µM [inhibitor, single point] |  | 
